Among the data in PubChem BioAssay AID1346428 (National Center for Advancing Translational Sciences (NCATS), 2018) are activation values, retold here.

Screen size: about 48,000 compounds; about 1,200 (2.5%) were called active. Another 2% or so got no clear call; they are omitted.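 How the source made its calls: active means activation of at least 60% and not above a set upper limit (about 1 call in 100 departs from these limits); inconclusive means activation of 40% to 60%, or above that upper limit; inactive means activation under 40%.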 This is one part of the list.

For the assay, the target named is Probable G-protein coupled receptor 32 (Homo sapiens) (UniProt O75388). Nature of the assay: qHTS for Agonists of Human Resolvin D1 Receptor DRV1. The following applies: CHO-K1 GPR32 beta-arrestin PathHunter luminescence, 90 min; at 76.9 µM; stronger effect = higher value; zero percent set by DMSO-only wells. The essentials: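 PathHunter enzyme-fragment complementation, CHO-K1 GPR32 stable line; 2,500 cells/well, overnight attach; cpd 90 min 37 °C 5% CO2; detection reagent 1 h RT; chemiluminescence. DMSO = EC0.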
Chain of UniProt O75388 (O75388 whole entry, looked up, the tested form may be a part): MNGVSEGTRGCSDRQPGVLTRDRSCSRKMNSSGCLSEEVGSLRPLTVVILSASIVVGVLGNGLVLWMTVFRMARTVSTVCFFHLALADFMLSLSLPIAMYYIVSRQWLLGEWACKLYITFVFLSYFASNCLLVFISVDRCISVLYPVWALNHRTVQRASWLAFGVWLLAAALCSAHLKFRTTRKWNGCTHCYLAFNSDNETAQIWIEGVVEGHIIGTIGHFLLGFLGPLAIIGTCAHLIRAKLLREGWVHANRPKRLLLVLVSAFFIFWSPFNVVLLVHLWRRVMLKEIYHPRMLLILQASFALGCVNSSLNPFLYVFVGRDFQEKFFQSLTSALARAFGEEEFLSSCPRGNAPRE
As to `COCCCn1c(SCC(=O)Nc2ccc(OC)cc2)nc2c(sc3ccccc32)c1=O`, the activation is inactive: -7.11%.
For `CC(C)(C)c1cc(/C=C(\C#N)C(N)=S)cc(C(C)(C)C)c1O`, the activation was inactive: -33%.
Regarding `O=C(c1cc(-c2ccc(Br)cc2)n[nH]1)N1CCN(S(=O)(=O)c2ccc(Cl)s2)CC1`, the activation is inactive: 9.74%.
`CCOC(=O)c1cc(-c2ccc(F)cc2)n(CCC(=O)Nc2cc(OC)cc(OC)c2)c1C`: the activation was inactive: -26.2%.
For `Cn1c(=O)c2c(nc(N3CCOCC3)n2Cc2ccccc2F)n(C)c1=O`, the activation was inactive: 9.07%.
As to `O=C(CSc1nc2ncccc2o1)Nc1ccc(Cl)cc1F`, the activation is inactive: -28.3%.
Then `O=C(Nc1ccccc1C(F)(F)F)C1CCN(S(=O)(=O)c2ccccc2)CC1`, with inactive: 40.7%; and `Cc1ccccc1-c1noc(-c2ccc(NCc3cccnc3)c([N+](=O)[O-])c2)n1`, with inactive: 15.5%; and `O=C(NC1CCCCC1)c1ccc(CSc2nc3cccnc3n2Cc2ccccc2)cc1`, with inactive: 43.8%.
Take `CC1=C(c2ccc(C(C)C)cc2)S(=O)(=O)N=C1N1CCC(C(=O)NCc2ccc(C)o2)CC1`: the activation is inactive: 21.7%.
As to `CC(=O)Nc1cccc(NC(=O)CSc2nccn2Cc2ccccc2)c1`, the activation is inactive: 21.9%.
Then `O=C(COc1ccccc1-c1nc(-c2ccccc2)no1)Nc1ccc([N+](=O)[O-])cc1`, with inactive: 4.58%; and `Cc1cc(C)c2c(NC(=O)c3ccccc3Cl)c(C(=O)NCc3ccc(Cl)cc3)sc2n1`, with inactive: -1.97%; and `Cc1ccc(CN(Cc2cccn2-c2nnc(N3CCCC3=O)s2)C(=O)Nc2ccccc2Cl)cc1`, with inactive: -23.1%.
On to `Cc1cc(Nc2cc(Cl)ccc2C)n2nc(-c3ccccc3)nc2n1`, for which the activation is inactive: 9.96%.
Consider `CC(=O)c1cccc(NC(=O)Cn2ccn3nc(-c4ccccc4)cc3c2=O)c1`, for which the activation is inactive: -1.59%.
Consider `CCOC(=O)c1c(N)n(-c2ccc(OCC)cc2)c2nc3ccccc3nc12`, for which the activation was inactive: 4.42%.
The figure for `Cc1c(CC(=O)NCCc2ccccc2)c(=O)oc2c(C)c3occ(C(C)(C)C)c3cc12` is inactive: -18.9%.
Take `COc1ccc(OCCCn2c(C3CC(=O)N(c4ccc(F)cc4)C3)nc3ccccc32)cc1` (configuration not stated): the activation is inactive: 1.68%.
`CCOC(=O)c1c(C)[nH]c(CCC(=O)NCc2ccc(OC)cc2OC)c1C`: the activation is inactive: -13.1%.
As for `Cc1nc2c(-c3ccc(F)cc3)c(C)nn2c(C)c1CCC(=O)NCc1ccc(F)cc1`, the activation is inactive: -3.35%.
Take `COc1ccc(OC)c(-c2noc(N3CCN(c4cccc(C(F)(F)F)c4)CC3)n2)c1`: the activation is inactive: 9.64%.
For the molecule `CCCCC1=NC2(CCCC2)C(=O)N1Cc1ccc(-c2ccccc2-c2nn[nH]n2)cc1`, the activation was inactive: -25.4%.
The figure for `COc1ccc(NC(=O)c2nnn(-c3ccc(C(C)C)cc3)c2C)c(OC)c1` is inactive: 21.6%; for `CC(C)CCNC(=O)c1cc(-c2cccnc2)nc2ccc(S(=O)(=O)N3CCC(C)CC3)cc12` it is inactive: -8.44%.
The figure for `O=C(CSc1nc2c([nH]c3ccccc32)c(=O)n1-c1ccccc1)N1CCCCC1` is inactive: -13.4%.
Turning to `CCOc1ccc(-c2cc(C(=O)NCCc3ccc(C)cc3)c3ccccc3n2)cc1`, the activation was inactive: 33.2%.
Turning to `Cc1cccc(-n2c3nc(=O)[nH]c(=O)c-3cc3ccc(Cl)cc32)c1C`, the activation was inactive: 1.7%.
`CCOc1cccc2sc(N3CCN(C(=O)c4ccco4)CC3)nc12`: the activation is inactive: -16.7%.
`Cn1c(CN2CCOCC2)nc2cc(NC(=O)c3ccccc3[N+](=O)[O-])ccc21`: the activation was inactive: -5.13%.
In the case of `O=C(NCCCN1CCN(c2ccc(F)cc2)CC1)Nc1ccccc1Cl`, the activation was inactive: 29.7%.
For the molecule `COc1cc(OC)c(NC(=O)c2ccc(-n3cnc4cccnc43)cc2)cc1Cl`, the activation is inactive: 15.4%.
On to `CCOC(=O)CC(NC(=O)Cn1nnc(-c2ccc(Cl)cc2)n1)c1ccc(OC)cc1` (configuration not stated), for which the activation was inactive: 1.73%.
For the molecule `COc1ccc(-n2ncc3c2ncn2nc(-c4ccc(OC)c(OC)c4)nc32)cc1`, the activation was inactive: -23.5%.
Turning to `CC1=C(C(=O)Nc2ccccc2)C(c2ccc(Br)cc2)n2nc(CCCO)nc2N1` (configuration not stated), the activation was inactive: -1.86%.
In the case of `Cn1ccc2cc(S(=O)(=O)N3CCCC(C(=O)NCc4ccccc4F)C3)ccc21` (configuration not stated), the activation is inactive: 37.4%.
Take `Cc1ccccc1-c1nc(CNC(=O)NC2CCCCC2)c(C)o1`: the activation was inactive: 4.13%.
Turning to `CCCCN(CCCC)CCCNC(=O)c1cc(-c2ccc(Cl)s2)nc2ccccc12`, the activation was inactive: -8.57%.
As to `CC(C)c1ccc(C2CC(=O)N3CN(C4CCCCC4)CSC3=C2C#N)cc1` (configuration not stated), the activation was inactive: -9.08%.
Regarding `COc1ccccc1N1CCN(C(=O)c2nn(C)c3c2CS(=O)(=O)c2ccccc2-3)CC1`, the activation was inactive: -4.08%.
In the case of `CCCc1cc(=O)[nH]c(Nc2cc(Cl)cc(Cl)c2)n1`, the activation is active: 98.5%.
As to `O[C@@H](COc1cccc2ncccc12)CN1CCN(C2c3ccccc3[C@@H]3[C@H](c4ccccc42)C3(F)F)CC1` (some centres not stated), the activation is inactive: 7.87%.
As to `CCn1cc2nc(SCc3cc(C)ccc3C)n(Cc3ccc(Cl)cc3)c(=O)c2n1`, the activation is inactive: -21.7%.
As to `CCN(CC)c1ccc(CN(C(=O)c2cc(=O)c3ccccc3o2)C2CCS(=O)(=O)C2)cc1` (configuration not stated), the activation was inactive: -31.9%.
In the case of `COc1cccc(CNC(=O)CN2C(=O)COc3ccc(S(=O)(=O)N4CCCCC4)cc32)c1`, the activation is inactive: -5.7%.
Then `Cn1cc(S(=O)(=O)N2CCCC2)cc1C(=O)Nc1ccc(F)cc1F`, with inactive: -6.84%; and `CCOC(=O)c1ccc(NC(=O)Cc2noc3ccc(C)cc23)cc1`, with inactive: -4.82%.
Then `Cc1ccc(CNC(=O)CCCCCn2c(=O)c3sccc3n(CC(=O)N3CCCCC3C)c2=O)cc1` (configuration not stated), with inactive: 9.54%; and `O=C(CCCCCn1c(=O)[nH]c2ccccc2c1=O)N1CCN(c2cccc(C(F)(F)F)c2)CC1`, with inactive: -9.92%; and `O=C(C1CCN(S(=O)(=O)c2cccs2)CC1)N1CCN(c2ccccc2F)CC1`, with inactive: 2.88%.
Turning to `CCCCC12CN3CC(C)(CN(C1)C3c1ccc(OCc3ccccc3)cc1)C2=O` (configuration not stated), the activation was inactive: -1.66%.
On to `CC1=C(C(=O)Nc2ccccc2Br)C2(CCC(C)CC2)OC1=O` (configuration not stated), for which the activation is inactive: 2.78%.
Take `Cc1ccc(-c2nc3sc(CCNC(=O)c4ccc(F)c(F)c4)c(C)n3n2)cc1`: the activation is inactive: 0.896%.
Turning to `C[C@H](NC(=O)/C(C#N)=C/c1ccc(O)c(O)c1)c1ccccc1`, the activation was inactive: -26.9%.
As for `CNC(=O)c1c(I)c(NC(C)=O)c(I)c(C(=O)O)c1I`, the activation was inactive: 30.3%.
With `CCN(C(=O)Cn1c(C(=O)OC)cc2sccc21)c1cccc(C)c1`, the activation is inactive: -22.6%.
With `Cc1ccccc1NC(=O)c1sc2nc(-c3cc4ccccc4oc3=O)[nH]c(=O)c2c1C`, the activation is inactive: -12.5%.
On to `Cc1nc(-c2ccc(S(=O)(=O)N3CCN(c4ccccc4F)CC3)cc2)co1`, for which the activation is inactive: 27.8%.
Regarding `CCC(CC)C(=O)Nc1ccc(S(=O)(=O)N2CCC(c3nc4ccccc4s3)CC2)cc1`, the activation was inactive: 4.34%.
Then `FC(F)(F)c1cccc(Nc2nc3nonc3nc2Nc2ccc(Cl)cc2)c1`, with inactive: -23.3%.
Then `COc1ccc(C)cc1NC(=O)CN(C)S(=O)(=O)c1ccc2c(c1)c(=O)n(C)c(=O)n2C`, with inactive: 5.98%; and `Cc1ccccc1NC(=O)c1c(C)oc2ccc(O)c(CN3CCCCCC3)c12`, with inactive: -16.1%; and `CC(C)NC(=O)c1ccc(CSc2nc3ccncc3n2Cc2cccc(F)c2)cc1`, with inactive: 22.1%.
Then `CCCn1cc(S(=O)(=O)c2ccc(C)c(C)c2)c(=O)c2cc(F)c(N3CCCCC3)cc21`, with inactive: -4.99%; and `CCn1cc2nc(SCC(=O)Nc3ccc(OC)c(Cl)c3)n(Cc3ccc(OC)cc3)c(=O)c2n1`, with inactive: -1.75%.
With `CCOC(=O)c1ccc(NC(=O)CSc2nc(-c3ccc(OC)cc3)cc(C(F)(F)F)c2C#N)cc1`, the activation was inactive: 7.96%.
`Cc1ccc(Nc2ccc3cc(S(=O)(=O)N4CCCCC4)ccc3n2)cc1F`: the activation was inactive: 5.64%.
For the molecule `COc1ccc(-c2cc3nc(C)c(CCC(=O)NCc4ccccc4Cl)c(C)n3n2)c(OC)c1`, the activation is inactive: -4.64%.
Turning to `O=C(Cc1ccccc1)N(Cc1cccnc1)c1nc2c(Cl)cccc2s1`, the activation is inactive: -26.6%.
The figure for `COc1ccc(N(CC(=O)N2CCN(c3ccccc3)CC2)S(=O)(=O)c2c(C)nn(C)c2C)cc1` is inactive: 2.48%; for `O=C(CCC1CCCC1)N1CCc2c([nH]c3ccccc23)C1c1ccc(F)cc1` (configuration not stated) it is inactive: -40.2%; for `CC(=O)c1ccc(NC(=O)c2cn(-c3ccccc3)nc2-c2ccc(Br)cc2)cc1` it is inactive: -0.309%.
In the case of `N#Cc1nc(COc2ccccc2Cl)oc1NCCc1ccccc1`, the activation is inactive: -34.3%.
The figure for `CCOc1ccc(NC(=O)NCCN2CCN(c3cccc(C)c3C)CC2)cc1` is inactive: 7.46%.
On to `CCc1cccc(C)c1NC(=O)C1CCN(S(=O)(=O)c2c(C)noc2/C=C/c2c(C)cc(C)cc2C)CC1`, for which the activation is inactive: -5.83%.
Turning to `CCc1nnc(SC(CC)C(=O)Nc2ccc(OC)c(Cl)c2)c2cc3occc3n12` (configuration not stated), the activation is inactive: -26.9%.
Take `COc1ccccc1NC(=O)c1c(C)cc(C)nc1SCC(=O)Nc1ccc(C)c(C)c1`: the activation was inactive: -32.2%.
For the molecule `COc1cccc(-n2ccn(CC(=O)NCc3ccc(C)cc3)c(=O)c2=O)c1`, the activation was inactive: -0.585%.
With `COc1ccccc1Nc1nc(-c2ccc(F)cc2)c2c(n1)-c1ccccc1OC2`, the activation is inactive: -3.06%.
On to `Cc1ccc(CCNC(=O)CN(c2cc(C)cc(C)c2)S(=O)(=O)c2c(C)noc2C)cc1`, for which the activation was inactive: -13.2%.
The figure for `COc1ccccc1CNC(=O)CCCn1c(=O)c2ccccc2n(Cc2ccc(F)cc2)c1=O` is inactive: -7.13%; for `CCOc1ccc(C2CC(=O)NC(NC(=O)c3cccc(Cl)c3)=N2)cc1` (configuration not stated) it is inactive: -3.23%.
